Molecules are shown by their SMILES. Screen size: about 310,000 compounds; about 2,200 (0.71%) showed an effect of 50% or more. The effect is printed as a negative number. The list shows a part of the results.

In the assay the target is human ether-à-go-go-related gene (hERG) potassium channel (human, UniProt Q12809). Kind of assay: primary screen, population patch clamp on CHO cells stably expressing hERG.
Sequence of human ether-à-go-go-related gene (hERG) potassium channel (Q12809 whole entry, looked up): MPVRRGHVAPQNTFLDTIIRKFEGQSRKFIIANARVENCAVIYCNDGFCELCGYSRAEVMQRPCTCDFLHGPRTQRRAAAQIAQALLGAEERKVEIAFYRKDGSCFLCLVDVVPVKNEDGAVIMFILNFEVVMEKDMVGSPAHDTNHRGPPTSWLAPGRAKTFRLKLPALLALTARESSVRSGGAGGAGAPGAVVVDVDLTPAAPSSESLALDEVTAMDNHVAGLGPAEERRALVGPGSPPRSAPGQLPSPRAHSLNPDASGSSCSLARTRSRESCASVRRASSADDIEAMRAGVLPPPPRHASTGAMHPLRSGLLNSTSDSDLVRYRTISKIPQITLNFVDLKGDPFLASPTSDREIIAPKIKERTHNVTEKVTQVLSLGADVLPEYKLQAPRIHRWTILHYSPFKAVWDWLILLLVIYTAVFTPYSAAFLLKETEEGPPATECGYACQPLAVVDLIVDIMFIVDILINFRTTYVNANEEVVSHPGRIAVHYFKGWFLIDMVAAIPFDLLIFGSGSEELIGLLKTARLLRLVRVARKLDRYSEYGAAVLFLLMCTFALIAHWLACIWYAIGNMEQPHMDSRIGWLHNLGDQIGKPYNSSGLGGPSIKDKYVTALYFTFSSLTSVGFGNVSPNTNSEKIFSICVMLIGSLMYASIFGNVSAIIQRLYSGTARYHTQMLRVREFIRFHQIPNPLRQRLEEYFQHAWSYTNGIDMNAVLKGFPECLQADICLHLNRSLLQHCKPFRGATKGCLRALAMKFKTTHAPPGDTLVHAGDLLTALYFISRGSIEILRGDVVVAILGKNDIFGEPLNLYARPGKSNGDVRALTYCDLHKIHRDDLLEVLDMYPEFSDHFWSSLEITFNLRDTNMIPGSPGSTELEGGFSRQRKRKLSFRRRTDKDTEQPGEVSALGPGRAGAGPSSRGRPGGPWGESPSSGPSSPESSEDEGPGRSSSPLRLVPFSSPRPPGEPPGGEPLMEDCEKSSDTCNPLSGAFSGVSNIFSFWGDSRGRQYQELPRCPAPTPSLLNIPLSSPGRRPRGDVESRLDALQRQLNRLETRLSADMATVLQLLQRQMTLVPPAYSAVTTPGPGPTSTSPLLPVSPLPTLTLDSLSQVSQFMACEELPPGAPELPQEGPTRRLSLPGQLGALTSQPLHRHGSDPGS
Regarding `CCc1ccc(C(=O)NNC(=O)CCc2nc3ccccc3c(=O)[nH]2)cc1`, the “hERG current change (%, negative = inhibition) at 1uM” value is -4.62%.
In the case of `Cc1cc(Cl)cc(C)c1OCCCCn1ccnc1` it was -9.14%; in that of `O=C(CN1C(=O)c2cccnc2Oc2ccc(Cl)cc21)Nc1ccc(F)cc1`, 14.1%.
Next, `CCCC1=[N+](CC(=O)c2ccc(C)cc2)CCn2cccc21.[Br-]`: 14.1%.
In the case of `CCOC(=O)c1cc(NC(=O)CN2CCCC2)cc(C(=O)OCC)c1` it was 14.5%; in that of `CCOC(=O)CC(=O)NC(CC(=O)OC)c1ccc(C(C)C)cc1` (centres unmarked), -7.62%.
On to `N#Cc1ccccc1S(=O)(=O)N1CCN(C(=O)C2COc3ccccc3O2)CC1` (centres unmarked), for which the “hERG current change (%, negative = inhibition) at 1uM” value is -1.92%.
Turning to `C#Cc1ccc([C@@H]2C=C(C(=O)NC3CC3)O[C@H](OCc3ccc(CO)cc3)C2)cc1`, the “hERG current change (%, negative = inhibition) at 1uM” value is 10.1%.
In the case of `O=C(NCc1ccccn1)Nc1ccc(F)c(Cl)c1` it was -12.9%.
In the case of `O=C(Nc1cccc(S(=O)(=O)N2CCOCC2)c1)c1ccccn1` it was 3.86%.
As to `COc1ccc(OC)c(-c2csc(NC(=O)C3c4ccccc4Oc4ccccc43)n2)c1`, the “hERG current change (%, negative = inhibition) at 1uM” value was 0.107%.
In the case of `Cc1ccccc1NS(=O)(=O)c1ccc(C(=O)NCCCN2CCOCC2)cc1` it was 17.5%; in that of `O=C(CSc1nc2sc3c(c2c(=O)n1-c1ccccc1)CCCC3)NCc1ccco1`, 14.3%.
In the case of `Cc1ccc(OCC(=O)N2CCCCCCC2)cc1` it was 9.55%; in that of `COc1cc(OC)cc(C(=O)NCC(=O)NC(C)CCc2ccccc2)c1` (centres unmarked), 4.24%.
In the case of `CCCN1Cc2cccc(C(=O)NCCCOC(C)C)c2C1=O` it was 7.23%; in that of `COc1ccc(/C=N/NC(=O)C(=O)N2CCCC2)cc1OC`, 3.19%.
Consider `Cc1ccc(C(=O)NC2c3ccccc3-c3ccccc32)cc1`, for which the “hERG current change (%, negative = inhibition) at 1uM” value is listed as 16.7%.
Next, `CCOc1ccc(-c2cccc(NC(=O)COc3ccccc3)c2)nn1`: -5.13%.
Next, `CCN1CCN(S(=O)(=O)c2ccc(C(=O)Nc3ccccc3)cc2)CC1`: 3.38%; `Cn1c(N)c(N2CCN(c3ccccc3)CC2)c(=O)[nH]c1=O`: 18.9%.
In the case of `CN(C)c1ccc(/C=C2\SC(=O)N(CCc3nnc(N)s3)C2=O)cc1` it was -1.13%; in that of `CC(O)CNC12CC3CC(CC(C3)C1)C2` (centres unmarked), 8.94%; in that of `CCCCC(=O)Nc1ccc(NC(=S)NC(=O)c2ccco2)cc1OC`, 12.7%.
In the case of `COc1cccc(NC(=O)CN(C)C(=O)CN2C(=O)c3ccc([N+](=O)[O-])cc3C2=O)c1`, the “hERG current change (%, negative = inhibition) at 1uM” value was 11%.
Next, `N#Cc1c(N)c(C(=O)c2ccccc2)n2c1CCC2`: 13.3%.
In the case of `CCOC(=O)c1c(NC(=O)Cn2nc(C(F)(F)F)cc2C)sc(C)c1C`, the “hERG current change (%, negative = inhibition) at 1uM” value is listed as -3.96%.
Next, `Cc1ccc(CNC(=O)CN(C(=O)N2CCN(C)CC2)S(=O)(=O)c2ccc(C)cc2)cc1`: 17%; `Cc1cccc(OCCn2nnc3ccccc32)c1C`: 11.8%; `O=C(Nc1ccc2nc3n(c(=O)c2c1)CCCC3)c1ccc(Cl)nc1`: 10.7%.
In the case of `O=C(CSc1nnnn1-c1ccccc1)Nc1ncc(Cc2ccccc2Cl)s1` it was 11.8%; in that of `COC(=O)c1c(C)oc(C)c1S(=O)(=O)NCc1ccc(Cl)cc1Cl`, -1.2%; in that of `Oc1sc(C=Nc2ccc(F)cc2)c2ccccc12`, 19.5%.
In the case of `CCCCCN(C(=O)CCC(=O)OCC(=O)c1ccc(C(C)(C)C)cc1)c1c(N)n(CCCC)c(=O)[nH]c1=O` it was 4.2%; in that of `COC(=O)c1cc(OC)c(OC)cc1NC(=S)N1CCN(C/C=C/c2ccccc2)CC1`, 5.63%.
Consider `COC(=O)C1=C(c2ccccc2)C[C@@H]2CC[C@H]1N2C(=O)N1CCC(O)CC1`, for which the “hERG current change (%, negative = inhibition) at 1uM” value is listed as 10.3%.
In the case of `CCOC(=O)c1cnc2ccc(C)cc2c1Sc1ccccc1C(=O)OC` it was 4.32%.
In the case of `CCCc1nnc(NC(=O)CSc2nnc(-c3ccco3)n2C)s1` it was 15%; in that of `Cc1cc(C)n(C(=O)CNc2cccc(Cl)c2C)n1`, 10.3%; in that of `O=C1Nc2ccccc2S/C1=C/NCc1ccccc1Cl`, 7.47%.
In the case of `Cn1cc([N+](=O)[O-])c(C(=O)NNC(=O)c2ccc([N+](=O)[O-])cc2)n1` it was 17.7%.
Turning to `COc1ccc(-n2ncc3c(=O)n(CC(=O)N(C(C)C)C(C)C)cnc32)cc1`, the “hERG current change (%, negative = inhibition) at 1uM” value worked out at 8.56%.
Turning to `Cc1ccc(S(=O)(=O)N(Cc2cccc(F)c2)C(=O)N2CCN(C)CC2)cc1`, the “hERG current change (%, negative = inhibition) at 1uM” value turned out to be 23.3%.
In the case of `CCSc1nc(N2CCOCC2)c2c(c1C#N)CCCC2` it was -4.42%; in that of `NC(=O)C1(C(N)=O)OC1c1ccccc1` (centres unmarked), 11.6%; in that of `O=C(CN1CCN(Cc2ccc(Cl)cc2)C1=O)NCCN1CCCC1`, 13.3%.
Next, `CN1C(C(=O)NCc2cccc(Br)c2)CC2Cn3c(nc4cc(Cl)c(Cl)cc43)C21` (centres unmarked): 4.64%; `C=CCSC1=C(C#N)C(c2ccccc2OCC)CC(=O)N1` (centres unmarked): 12%.
Consider `C=CCN(C(=O)Nc1ccccc1)C1CC(=O)N(c2ccc(OC)cc2)C1=O` (centres unmarked), for which the “hERG current change (%, negative = inhibition) at 1uM” value was -1.23%.
Take `O=C1CC(N(C(=O)c2ccco2)c2cccc(Cl)c2)C(=O)N1c1cccc(Cl)c1` (centres unmarked): the “hERG current change (%, negative = inhibition) at 1uM” value amounted to 4.49%.
Next, `Cc1nc(NC(C)C(=O)O)c2nc(C)oc2n1` (centres unmarked): -10.4%; `CCOC(=O)N1CCN(C(=O)COC(=O)CSc2ccc([N+](=O)[O-])cc2)CC1`: 8.1%; `CC(C)CCOP(=O)(c1ccc(N(C)C)cc1)C(O)c1ccccc1F` (centres unmarked): 4.4%.
In the case of `COc1cc(C(=O)Nc2cccc3cccnc23)cc(OC)c1OC` it was -3.57%; in that of `CN(C1CCCCC1)S(=O)(=O)c1ccc(C(=O)N2CCN(c3nc4ccccc4s3)CC2)cc1`, 17.8%; in that of `O=C(O)c1ccc2c(c1)N(Cc1ccccc1)C(=O)c1ccccc1S2=O` (centres unmarked), 21.7%.
